Hit rate of the full screen: of about 150,000 compounds, about 540 (0.36%) showed an effect of 50% or more. The list shows a part of the results.
Test system: Plasmodium falciparum
Assay: Primary screen in NF54 nanoGlo assay, in single point, at 2uM, 72h; a lower Z score goes with more inhibition
Type: functional, Erythrocyte
Settings: timepoint 72 hour

First: COC(=O)c1ccccc1S(=O)(=O)Nc1cccn2c(C3CCC3)nnc12
Second: COc1ccc(C(NC(=O)C2CCCc3ccccc32)C(=O)O)cc1 (centres undefined)
The “% Inhibition” value of the first is higher: -1% for the first, -13% for the second.

Compared with CN(Cc1cccc(C(=O)O)c1)C1CC(Oc2ccccc2)C1(C)C (centres undefined), CC(C)C(=O)N1CCc2ccc(OCc3nc(C(=O)N(C)Cc4ccccc4)cs3)cc2[C@@H]1c1ccccc1 is higher in “% Inhibition” value: -8% for the first, 1% for the second.

Going from CC(C)c1n[nH]c2c1CN(C(=O)Nc1ccc3c(c1)COC3=O)CC2 to CC1CN(C(=O)Cn2cc(NC(=O)c3n[nH]c4c3CCC4)cn2)CC(C)O1 (centres undefined), the “% Inhibition” value rises from -13% to -2%.

Going from O=C(O[C@H]1CCOC1=O)c1ccc(S(=O)(=O)N2CCCCC2)cc1 to CN(CCCNC(=O)[C@H]1CCCN(S(=O)(=O)c2ccc3c(ccn3C)c2)C1)Cc1ccccc1, the “% Inhibition” value falls from -1% to -13%.

Going from Cc1ccc(N2C(=O)N(Cc3cccc(C#N)c3)S(=O)(=O)c3cccnc32)cc1 to CCCC(=O)N1CCCN(c2nc(Cc3ccc(C)cc3)nc3c2c(C)nn3-c2ccc(F)cc2)CC1, the “% Inhibition” value rises from -11% to 8%.

Going from CCN(CC)C(=O)c1cn2c3c(cccc3c1=O)CC2 to O=C(c1cnn2c1CCC2)N1CCc2ncccc21, the “% Inhibition” value falls from -1% to -8%.

Compared with CC(=O)N[C@H]1CO[C@@H](CN(C)CCc2ccccc2)[C@@H]1O, O=C(N[C@@H]1CCCC[C@H]1OCc1ccccc1)N1C[C@@H]2CCS(=O)(=O)[C@@H]2C1 is higher in “% Inhibition” value: 2% for the first, 34% for the second.

Compared with Cc1cncc(CNC(=O)N[C@H]2CC23CCCCC3)c1, Cc1ccnc(CNC(=O)N2CCOCC(F)(F)C2)c1 is higher in “% Inhibition” value: -11% for the first, 17% for the second.

Going from COc1ccc2c(c1)C(N1CCN(C(=O)c3ccccc3OC)CC1)=Nc1ccc(C)cc1O2 to Cc1ccccc1N1CCN(c2ncccc2CNCc2ccccn2)CC1, the “% Inhibition” value falls from 7% to -3%.

Compared with O=c1[nH]c2cc3[nH]c(=O)c(=O)c3cc2c1=O, Cc1cc(F)ccc1NC(=O)CCn1c(=O)cc(C(F)(F)F)c2c(C)n(C)nc21 is higher in “% Inhibition” value: -18% for the first, -5% for the second.

Compared with Cn1ncnc1CCNS(=O)(=O)CC1CCCC1, CCc1nccc(CN2CCC[C@H](CNC(=O)c3ccncc3)C2)n1 is lower in “% Inhibition” value: -7% for the first, -12% for the second.

Compared with O=C(Cn1nnc2ccccc21)NC1CC1c1cccc(F)c1 (centres undefined), Cc1cc(S(=O)(=O)n2c(/C=C/c3ccccc3)nc3ccccc32)ccc1F is higher in “% Inhibition” value: -24% for the first, 5% for the second.

Compared with C[C@H](Oc1ccc(F)cc1)c1nnc(C2(c3ccc(Cl)cc3)CCOCC2)o1, CCOc1ccc(C(=O)N/C(=N/c2ccc([C@@H](C)CC)cc2)NCc2ccncc2)cc1 is lower in “% Inhibition” value: 1% for the first, -12% for the second.

Compared with Cc1cc(NC(=O)[C@H](C)Nc2ccc3c(c2)OCO3)on1, Cc1ccc2nc(NC(=O)Cc3c(C)nn(C)c3C)sc2c1 is lower in “% Inhibition” value: -1% for the first, -7% for the second.

Going from CCc1nc(OCC(=O)NCCOC)c2c(-c3ccc(F)cc3)noc2n1 to CCc1ccc(C(=O)Nc2cnc(-n3ccnc3)nc2)cc1, the “% Inhibition” value rises from -3% to 38%.

First: CC(C)(C)OCCON=C(N)c1cccs1
Second: CCN1CCN(CC#CCOc2cccc(OC)c2)CC1
The “% Inhibition” value of the first is higher: 34% for the first, -5% for the second.

Going from c1c[nH]c(CNc2ccc3scnc3c2)n1 to CNC(=O)c1nc(-c2ccccc2)n2c1CCN(C(=O)Cn1ccnc1)CC2, the “% Inhibition” value falls from -2% to -9%.

Compared with CCO[C@@H](C)C(=O)N1CCN(CC(C)(C)O)CC1, CCc1nc(C(C)NC(=O)C2CCCO2)cs1 (centres undefined) is higher in “% Inhibition” value: -5% for the first, -1% for the second.

First: O=C(Cc1c[nH]c2cc(Cl)ccc12)NC1CCN(C[C@H]2CCOC2)CC1
Second: Cn1ccc(C(=O)N2CCC[C@@]3(CCC(=O)N(Cc4cccnc4)C3)C2)cc1=O
The “% Inhibition” value of the first is higher: -11% for the first, -16% for the second.

First: Cc1nc2ccccc2c2nc(NC(=O)c3ccc4nsnc4c3)nn12
Second: CNc1cc([C@H]2C[C@@H](NC(=O)c3cc(C#N)cn3C)C2)nc(N)n1
The “% Inhibition” value of the first is lower: -16% for the first, -5% for the second.

Compared with COc1ccc(CN2[C@@H]3CC[C@H]2CN(C)C(=O)C3)cc1Cn1cccn1, Cc1noc(C)c1S(=O)(=O)N1CC[C@H](c2noc(-c3ccncc3)n2)C1 is lower in “% Inhibition” value: -1% for the first, -8% for the second.

Compared with COC(=O)c1ccccc1S(=O)(=O)Nc1cccn2c(C3CCC3)nnc12, COc1ccc(C(NC(=O)C2CCCc3ccccc32)C(=O)O)cc1 (centres undefined) is higher in Z score: 0.14 for the first, 1.28 for the second.

Going from CN(Cc1cccc(C(=O)O)c1)C1CC(Oc2ccccc2)C1(C)C (centres undefined) to CC(C)C(=O)N1CCc2ccc(OCc3nc(C(=O)N(C)Cc4ccccc4)cs3)cc2[C@@H]1c1ccccc1, the Z score falls from 0.95 to -0.07.

Going from CC(C)c1n[nH]c2c1CN(C(=O)Nc1ccc3c(c1)COC3=O)CC2 to CC1CN(C(=O)Cn2cc(NC(=O)c3n[nH]c4c3CCC4)cn2)CC(C)O1 (centres undefined), the Z score falls from 1.44 to 0.38.

Compared with O=C(O[C@H]1CCOC1=O)c1ccc(S(=O)(=O)N2CCCCC2)cc1, CN(CCCNC(=O)[C@H]1CCCN(S(=O)(=O)c2ccc3c(ccn3C)c2)C1)Cc1ccccc1 is higher in Z score: 0.1 for the first, 2.36 for the second.

Going from Cc1ccc(N2C(=O)N(Cc3cccc(C#N)c3)S(=O)(=O)c3cccnc32)cc1 to CCCC(=O)N1CCCN(c2nc(Cc3ccc(C)cc3)nc3c2c(C)nn3-c2ccc(F)cc2)CC1, the Z score falls from 1.08 to -1.12.

Going from CCN(CC)C(=O)c1cn2c3c(cccc3c1=O)CC2 to O=C(c1cnn2c1CCC2)N1CCc2ncccc21, the Z score rises from 0.09 to 1.53.

First: CC(=O)N[C@H]1CO[C@@H](CN(C)CCc2ccccc2)[C@@H]1O
Second: O=C(N[C@@H]1CCCC[C@H]1OCc1ccccc1)N1C[C@@H]2CCS(=O)(=O)[C@@H]2C1
The Z score of the first is higher: -0.3 for the first, -3.87 for the second.

First: Cc1cncc(CNC(=O)N[C@H]2CC23CCCCC3)c1
Second: Cc1ccnc(CNC(=O)N2CCOCC(F)(F)C2)c1
The Z score of the first is higher: 1.99 for the first, -2.13 for the second.

Going from COc1ccc2c(c1)C(N1CCN(C(=O)c3ccccc3OC)CC1)=Nc1ccc(C)cc1O2 to Cc1ccccc1N1CCN(c2ncccc2CNCc2ccccn2)CC1, the Z score rises from -0.86 to 0.65.

Going from O=c1[nH]c2cc3[nH]c(=O)c(=O)c3cc2c1=O to Cc1cc(F)ccc1NC(=O)CCn1c(=O)cc(C(F)(F)F)c2c(C)n(C)nc21, the Z score falls from 2.36 to 0.61.

Compared with Cn1ncnc1CCNS(=O)(=O)CC1CCCC1, CCc1nccc(CN2CCC[C@H](CNC(=O)c3ccncc3)C2)n1 is higher in Z score: 1.01 for the first, 1.5 for the second.

Going from O=C(Cn1nnc2ccccc21)NC1CC1c1cccc(F)c1 (centres undefined) to Cc1cc(S(=O)(=O)n2c(/C=C/c3ccccc3)nc3ccccc32)ccc1F, the Z score falls from 2.78 to -0.62.

First: C[C@H](Oc1ccc(F)cc1)c1nnc(C2(c3ccc(Cl)cc3)CCOCC2)o1
Second: CCOc1ccc(C(=O)N/C(=N/c2ccc([C@@H](C)CC)cc2)NCc2ccncc2)cc1
The Z score of the first is lower: -0.12 for the first, 2.05 for the second.

Going from Cc1cc(NC(=O)[C@H](C)Nc2ccc3c(c2)OCO3)on1 to Cc1ccc2nc(NC(=O)Cc3c(C)nn(C)c3C)sc2c1, the Z score rises from 0.14 to 1.19.

First: CCc1nc(OCC(=O)NCCOC)c2c(-c3ccc(F)cc3)noc2n1
Second: CCc1ccc(C(=O)Nc2cnc(-n3ccnc3)nc2)cc1
The Z score of the first is higher: 0.49 for the first, -8.38 for the second.

First: CC(C)(C)OCCON=C(N)c1cccs1
Second: CCN1CCN(CC#CCOc2cccc(OC)c2)CC1
The Z score of the first is lower: -4.96 for the first, 0.56 for the second.

First: c1c[nH]c(CNc2ccc3scnc3c2)n1
Second: CNC(=O)c1nc(-c2ccccc2)n2c1CCN(C(=O)Cn1ccnc1)CC2
The Z score of the first is lower: 0.2 for the first, 1.21 for the second.

Going from CCO[C@@H](C)C(=O)N1CCN(CC(C)(C)O)CC1 to CCc1nc(C(C)NC(=O)C2CCCO2)cs1 (centres undefined), the Z score falls from 0.49 to 0.11.

First: O=C(Cc1c[nH]c2cc(Cl)ccc12)NC1CCN(C[C@H]2CCOC2)CC1
Second: Cn1ccc(C(=O)N2CCC[C@@]3(CCC(=O)N(Cc4cccnc4)C3)C2)cc1=O
The Z score of the first is lower: 1.57 for the first, 1.82 for the second.

Compared with Cc1nc2ccccc2c2nc(NC(=O)c3ccc4nsnc4c3)nn12, CNc1cc([C@H]2C[C@@H](NC(=O)c3cc(C#N)cn3C)C2)nc(N)n1 is lower in Z score: 2.1 for the first, 0.46 for the second.

First: COc1ccc(CN2[C@@H]3CC[C@H]2CN(C)C(=O)C3)cc1Cn1cccn1
Second: Cc1noc(C)c1S(=O)(=O)N1CC[C@H](c2noc(-c3ccncc3)n2)C1
The Z score of the first is lower: 0.13 for the first, 0.98 for the second.
